# PubChem BioAssay (Tox21)
# Values joined by “and” are separate entries in the source; they are usually repeats but may differ in a detail not shown here. Identical values can stand only once. Inconclusive results, whose numbers are uncertain, are shown with a selection of clear calls. For part of these data: Potencies of inconclusive entries are doubtful fits and often do not repeat. Active and inactive are the calls of the source. Calls come from the whole dose curve; as a rule, active = well fitted curve in the direction sought with a large enough effect in the repeat runs; inconclusive = weak or mixed curves; inactive = no such curve, though single readings can be large; an effect the other way counts as inactive or inconclusive.
# Tests used:
# [1] = qHTS RealTime-Glo MT Cell Viability Assay in HepG2 cells - 40 hour (AID 1224870); note: nearly all actives have a fitted effect of over 50% in size
# Summary of the method: (§1)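 HepG2 cells (600/well) mixed with RealTime-Glo MT reagent, settled 5 h at 37 C/5% CO2 before compound addition. Nonlytic NanoLuc luminescence from viable-cell prosubstrate reduction read repeatedly during 40 h treatment at 37 C.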
# [2] = qHTS RealTime-Glo MT Cell Viability Assay in HEK293 cells - 16 hour (AID 1224872); note: nearly all actives have a fitted effect of over 50% in size
# Summary of the method: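 HEK293 cells were seeded at 600 cells/well together with NanoLuc luciferase and cell-permeant prosubstrate, preincubated 5 h at 37 C/5% CO2, then given compound in DMSO by pintool. Luminescence from viable-cell prosubstrate reduction was read repeatedly over 40 h.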
# [3] = A CellTox Green Cytotoxicity Assay to monitor cytotoxicity in HepG2 cells - 16 hour (AID 1224876); note: nearly all actives have a fitted effect of over 45% in size
# Summary of the method: (§2)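 Nonlytic assay: viable cells exclude the dye, so fluorescence scales with cell death. HepG2 at 600 cells/well, compounds added after 5 h, signal read across 40 h.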
# [4] = A CellTox Green Cytotoxicity Assay to monitor cytotoxicity in HepG2 cells - 24 hour (AID 1224878); note: nearly all actives have a fitted effect of over 45% in size
# Summary of the method: as §2
# [5] = A CellTox Green Cytotoxicity Assay to monitor cytotoxicity in HepG2 cells - 40 hour (AID 1224879); note: nearly all actives have a fitted effect of over 40% in size
# Summary of the method: as §2
# [6] = qHTS RealTime-Glo MT Cell Viability Assay in HepG2 cells - 8 hour (AID 1224873); note: nearly all actives have a fitted effect of over 55% in size
# Summary of the method: as §1
# [7] = qHTS RealTime-Glo MT Cell Viability Assay in HepG2 cells - 32 hour (AID 1224877); note: nearly all actives have a fitted effect of over 55% in size
# Summary of the method: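 HepG2 cells were seeded at 600 cells/well together with NanoLuc luciferase and a cell-permeant prosubstrate, preincubated 5 h at 37 C/5% CO2, then pin-dosed with compounds in DMSO. Nonlytic luminescence from viable cells was read at each time point.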
# [8] = qHTS RealTime-Glo MT Cell Viability Assay in HEK293 cells - 40 hour (AID 1224874); details: RealTime-Glo luminescence; max response: stronger effect = lower value; note: nearly all actives have a fitted effect of over 50% in size
# Summary of the method: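 Tox21 screen in HEK293 using RealTime-Glo MT chemistry, with cells and reagent co-dispensed. Luminescence proportional to viable cell number was captured at intervals during 40 h compound exposure at 37 C.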
# [9] = A CellTox Green Cytotoxicity Assay to monitor cytotoxicity in HEK293 cells - 24 hour (AID 1224875); note: nearly all actives have a fitted effect of over 45% in size
# Summary of the method: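 Seeding of HEK293 cells together with cytotoxicity dye preceded a 5 h incubation at 37 C/5% CO2. Test compounds in DMSO were then added and fluorescence monitored across 40 h.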
# Potency is the fitted concentration of half-maximal effect; tags give direction and shape of the fitted curve.
compound,measurement,setting,value
N=c1ccn2c(n1)O[C@H]1[C@H](O)[C@@H](CO)O[C@H]12,Potency,[1],inactive
same,Potency,[2],"inconclusive: 4.9 µM [rising, full curve]"
same,Potency,[3],"inconclusive: 54.9 µM [activator, single point]"
same,Potency,[4],"inconclusive: 54.9 µM [activator, single point]"
same,Potency,[5],active: 54.9 µM
COC(=O)C1=C(C)NC(C)=C(C(=O)OCCCN2CCC(c3ccccc3)(c3ccccc3)CC2)C1c1cccc([N+](=O)[O-])c1 (stereo not drawn),Potency,[1],"inconclusive: 23.9 µM [falling, single point]"
same,Potency,[2],active: 9.52 µM
same,Potency,[6],"inconclusive: 21.3 µM [falling, partial curve]"
same,Potency,[7],"inconclusive: 23.9 µM [cytotoxic, partial curve]"
same,Potency,[5],"inconclusive: 26.8 µM [activator, single point]"
CC/C(=C(/CC)c1ccc(O)cc1)c1ccc(O)cc1,Potency,[1],"inconclusive: 0.193 µM [falling, single point]"
same,Potency,[2],"active: 15.4 µM and active: 30.9 µM and inconclusive: 16.9 µM [cytotoxic, partial curve]"
same,Potency,[6],inactive
same,Potency,[7],"inconclusive: 0.217 µM [cytotoxic, single point]"
Cc1cc(=O)oc2cc(N(C)C)ccc12,Potency,[1],inactive
same,Potency,[2],"inconclusive: 54.9 µM [cytotoxic, partial curve, poor fit]"
same,Potency,[6],"inconclusive: 19.5 µM [falling, partial curve]"
same,Potency,[8],"inconclusive: 54.9 µM [cytotoxic, partial curve]"
COC(=O)C1=C(C)NC(COC(N)=O)=C(C(=O)OC(C)C)C1c1cccc(Cl)c1Cl (stereo not drawn),Potency,[1],"inconclusive: 23.9 µM [falling, partial curve]"
same,Potency,[2],active: 26.8 µM
same,Potency,[6],active: 23.9 µM
same,Potency,[3],"inconclusive: 26.8 µM [activator, single point]"
same,Potency,[4],"inconclusive: 26.8 µM [activator, single point]"
same,Potency,[5],"inconclusive: 26.8 µM [activator, single point]"
Nc1ccc(C(=O)Nc2ccccc2N)cc1,Potency,[1],active: 13.4 µM
same,Potency,[2],"inconclusive: 0.848 µM [rising, partial curve]"
same,Potency,[8],"inconclusive: 0.338 µM [rising, full curve]"
same,Potency,[7],"inconclusive: 13.4 µM [cytotoxic, partial curve]"
same,Potency,[4],"inconclusive: 10.7 µM [activator, partial curve]"
C[C@@H]1C[C@H]2[C@@H]3CCC4=CC(=O)C=C[C@]4(C)[C@@]3(Cl)[C@@H](O)C[C@]2(C)[C@@]1(OC(=O)c1ccco1)C(=O)CCl,Potency,[1],"inconclusive: 21.3 µM [falling, partial curve]"
same,Potency,[6],"inconclusive: 21.3 µM [falling, partial curve]"
same,Potency,[7],"inconclusive: 19 µM [cytotoxic, partial curve]"
same,Potency,[5],inactive
CCc1c(C(=O)NN2CCCCC2)nn(-c2ccc(Cl)cc2Cl)c1-c1ccc(Br)cc1,Potency,[1],"inconclusive: 49 µM [falling, partial curve]"
same,Potency,[6],"inconclusive: 43.6 µM [falling, partial curve]"
same,Potency,[8],"inconclusive: 21.9 µM [cytotoxic, partial curve]"
same,Potency,[7],"inconclusive: 43.6 µM [cytotoxic, partial curve]"
CCCCCCCCCCCCCC[N+](C)(C)Cc1ccccc1,Potency,[1],active: 22.2 µM and active: 9.52 µM and active: 15.8 mM
same,Potency,[9],active: 39.5 µM and active: 21.3 µM and active: 17.8 mM
same,Potency,[3],active: 49.7 µM and active: 23.9 µM and active: 17.8 mM
same,Potency,[5],active: 22.2 µM and active: 15.1 µM and active: 14.1 mM
CCCCC(CC)COP(=O)(OCC(CC)CCCC)OCC(CC)CCCC (stereo not drawn),Potency,[1],"inconclusive: 0.195 µM [falling, single point]"
same,Potency,[8],"inconclusive: 43.6 µM [cytotoxic, partial curve, poor fit]"
CCCCN(CCCC)CC(O)c1cc(Cl)cc2c1-c1ccc(Cl)cc1/C2=C/c1ccc(Cl)cc1 (stereo not drawn),Potency,[1],"inconclusive: 26.8 µM [falling, single point]"
same,Potency,[6],"inconclusive: 26.8 µM [falling, single point]"
same,Potency,[7],"inconclusive: 26.8 µM [cytotoxic, single point]"
same,Potency,[4],active: 23.9 µM
same,Potency,[5],active: 23.9 µM
